Laboratory results: the supplement of paper PMC7826260
Some of the results follow. The data describe in vitro nicking of single-stranded DNA by Rep domains (3 µM enzyme, 1 h, 37 °C); shown is the middle of each 90-letter strand. A value is the log2 ratio of uncut reads to the pool without enzyme; more negative means more cut, near 0 not cut, and no call is made. Counts are relative to all reads; where an enzyme cuts many sequences, the uncut ones exceed 0.

The sequences below were run on T1, Rep nickase domain of tomato yellow leaf curl virus (assay: uncleaved DNA left, log2 of reads against the no-enzyme library (log2 ratio); higher = less cleavage (more negative = more Rep cleavage of the k-mer); sequences stand for … in CTCGTCCG…ACCGGAGA).
T1 sequence (residues 1-136, tag not shown): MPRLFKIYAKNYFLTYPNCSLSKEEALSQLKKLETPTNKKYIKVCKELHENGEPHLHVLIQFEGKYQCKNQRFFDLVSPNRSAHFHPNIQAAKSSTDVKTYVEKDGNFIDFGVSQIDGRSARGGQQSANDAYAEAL
Protocol: (§1)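 A pool of 90-nt single-stranded DNAs with seven random bases just before the constant AC of the nick site (name = the seven bases) was cut by 3 µM recombinant His6-SUMO-tagged Rep nickase domain (300 nM DNA, 50 mM HEPES pH 8.0, 50 mM NaCl, 1 mM MnCl2, 1 h, 37 °C, three replicates). Uncut DNA was amplified and sequenced.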

| Sequence | uncleaved DNA left (log2) |
| --- | --- |
| GGAGACT | 0.0697 |
| GAGGCTG | -0.0383 |
| ACGTTCC | -0.0465 |
| TCGGGGC | 3.93e-05 |
| GACCGGG | 0.0563 |
| GTTGAAC | 0.208 |
| GATGATT | 0.0234 |
| CGTGATG | -0.0311 |
| GCCATGC | 0.218 |
| ACAATGT | -0.0574 |
| TGTCTAA | 0.0869 |
| CACTAGT | -0.0579 |
| GGAGCCA | 0.134 |
| AGTGCCC | -0.00115 |
| AAGATGT | -0.138 |
| TTGACCA | 0.0806 |
| TGAGCTG | -0.112 |
| ATCTCAA | -0.0144 |
| GGTTCCG | -0.0278 |
| GACAAAT | 0.111 |

| Sequence | uncleaved DNA left (log2) |
| --- | --- |
| ATACCTA | -0.0599 |
| AAGACCC | 0.0142 |
| AGATATT | -0.104 |
| TTATCTC | 0.11 |
| CTGTGTT | -0.029 |
| ATGTACG | 0.0861 |
| CCTAAAC | 0.0274 |
| ACGCACC | -0.113 |
| AATAACC | -0.0445 |
| TAATTAT | -1.79 |
| GTACTCC | -0.0035 |
| GGGCTGA | 0.0456 |
| TCGTGGC | -0.0649 |
| ACGAGGT | -0.0429 |
| ATTGCTC | 0.0794 |
| CCCCATC | -0.0436 |
| GAGAATC | 0.0794 |
| ATGTGCA | 0.139 |
| TGGAGTC | 0.0123 |
| CATGTGT | 0.0825 |

The sequences below were run on T2, Rep nickase domain of wheat dwarf virus in the same assay as above.
T2 sequence (residues 1-137, tag not shown): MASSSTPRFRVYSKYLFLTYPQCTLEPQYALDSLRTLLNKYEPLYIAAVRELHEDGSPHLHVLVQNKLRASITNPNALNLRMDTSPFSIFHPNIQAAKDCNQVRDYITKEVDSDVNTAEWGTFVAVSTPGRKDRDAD
Protocol: as §1

| Sequence | uncleaved DNA left (log2) |
| --- | --- |
| GGAGACT | 0.199 |
| GAGGCTG | -0.0356 |
| ACGTTCC | 0.018 |
| TCGGGGC | -0.015 |
| GACCGGG | 0.071 |
| GTTGAAC | 0.105 |
| GATGATT | 0.11 |
| CGTGATG | 0.0452 |
| GCCATGC | 0.0806 |
| ACAATGT | -0.0607 |
| TGTCTAA | 0.0329 |
| CACTAGT | -0.103 |
| GGAGCCA | 0.179 |
| AGTGCCC | 0.0656 |
| AAGATGT | -0.0163 |
| TTGACCA | 0.0724 |
| TGAGCTG | 0.0721 |
| ATCTCAA | 0.0476 |
| GGTTCCG | 0.0048 |
| GACAAAT | 0.221 |

| Sequence | uncleaved DNA left (log2) |
| --- | --- |
| ATACCTA | -0.00501 |
| AAGACCC | 0.122 |
| AGATATT | -3.1 |
| TTATCTC | -0.0604 |
| CTGTGTT | -1.14 |
| ATGTACG | -0.0486 |
| CCTAAAC | -0.0419 |
| ACGCACC | -0.075 |
| AATAACC | 0.0287 |
| TAATTAT | -4.72 |
| GTACTCC | -0.0279 |
| GGGCTGA | 0.141 |
| TCGTGGC | -0.227 |
| ACGAGGT | -0.119 |
| ATTGCTC | -0.0298 |
| CCCCATC | 0.0227 |
| GAGAATC | 0.213 |
| ATGTGCA | 0.031 |
| TGGAGTC | 0.207 |
| CATGTGT | -0.061 |
